# Measurements reported in patent US20150065381A1.
# For part of its entries the source gives two or more results. Only these are listed. An entry can have further records. Results that share an entry seem to repeat one measurement on other runs, samples or individuals.
# Molecular target: HIV-1 JRCSF envelope (HIV-1) (UniProt P20871)
# Assay: capture ELISA, plate 1, mAb 0.3 ug/ml
substance,measurement,value
PGT151 (antibody),ELISA OD,0.057 OD and 0.176 OD [columns of one line]
